# From paper PMC6919601, “Identification of Plasmodium dipeptidyl aminopeptidase allosteric inhibitors by high throughput screening” (PLoS ONE, 2019)
# Where “and” joins values, the source holds several entries; their conditions need not be identical. Equal entries are not always repeated. The whole screen tested about 110,000 compounds, of which about 230 (0.21%) showed an effect of 50% or more. The list shows a part of the results.
# Target: DPAP1 (Plasmodium falciparum, UniProt Q8IIJ9)
# Test: primary screen, percent inhibition; read by cleavage of a fluorogenic dipeptide substrate; higher = more effect of the substance
# Set-up: species or system P. falciparum D10 trophozoite lysates; single well
# 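Further: 30 min substrate incubation versus DMSO and 10 µM JCP410 controls.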
# Chain of DPAP1 (Q8IIJ9 whole entry, looked up): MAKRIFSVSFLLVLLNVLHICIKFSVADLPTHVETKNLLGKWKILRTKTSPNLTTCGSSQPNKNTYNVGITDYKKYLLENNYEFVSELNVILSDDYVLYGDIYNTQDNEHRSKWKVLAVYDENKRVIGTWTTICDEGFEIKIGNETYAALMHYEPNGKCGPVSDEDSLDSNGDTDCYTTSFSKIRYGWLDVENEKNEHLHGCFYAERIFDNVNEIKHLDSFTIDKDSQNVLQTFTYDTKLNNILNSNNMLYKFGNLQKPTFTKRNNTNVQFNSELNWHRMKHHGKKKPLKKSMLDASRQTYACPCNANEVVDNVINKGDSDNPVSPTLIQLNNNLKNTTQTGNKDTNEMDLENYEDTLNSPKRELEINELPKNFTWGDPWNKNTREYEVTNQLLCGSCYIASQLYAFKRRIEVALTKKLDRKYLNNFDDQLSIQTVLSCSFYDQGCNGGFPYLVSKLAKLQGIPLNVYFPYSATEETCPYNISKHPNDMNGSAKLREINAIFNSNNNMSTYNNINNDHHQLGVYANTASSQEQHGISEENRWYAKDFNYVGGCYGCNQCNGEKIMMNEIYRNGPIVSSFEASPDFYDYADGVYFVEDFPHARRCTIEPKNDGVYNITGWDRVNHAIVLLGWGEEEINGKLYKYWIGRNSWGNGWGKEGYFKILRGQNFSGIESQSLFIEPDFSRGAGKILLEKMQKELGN
row,SMILES,% Inhibition @ 10 uM
1,Cc1nc2ccccc2n1Cc1ccc(Cl)c(Cl)c1,-3.14%
2,CCCCn1c(NCc2ccco2)nc2ccccc21,-4.72%
3,CCn1cc(C(=O)Nc2c(C)nn(Cc3ccc(Cl)cc3Cl)c2C)cn1,0.431%
4,CCOC(=O)N1CCN(C(=O)C(C)N(c2ccccc2)S(C)(=O)=O)CC1 (centres unmarked),-5.13%
5,Cc1cc(C)cc(OCC(=O)Nc2ccc(S(=O)(=O)N3CCCC3)cc2)c1,1.64%
6,COc1ccc(/C=C2\Sc3ccccc3C2=O)cc1Br,6.98%
7,CC(C)CCCC(C)NS(=O)(=O)c1ccc(N)cc1 (centres unmarked),-0.864%
8,CCN(CCN(C)C)Cc1cccc(OCc2ccccc2)c1,-1.64%
9,Nc1ncc(Br)cc1S(=O)(=O)NCCCN1CCN(C2CCCCC2)CC1,-1.06%
10,COc1ccc(-c2c(C(C)=O)c(C)nc3sc4c(-n5nc(C)cc5C)nc(C)nc4c23)cc1,-10%
11,COC(=O)C1=C(C)NC(=O)C1(NC(=O)c1ccccc1F)C(F)(F)F (centres unmarked),0.221%
12,CCOC(=O)c1ccccc1NS(=O)(=O)c1ccc(Br)cc1,-0.828%
13,COC(=O)c1sccc1S(=O)(=O)N1CCC2(CC1)OCCO2,4.97%
14,COCCCn1c(=N)c(S(=O)(=O)c2ccc(Cl)cc2)cc2c(=O)n3cccc(C)c3nc21,16.1%
15,Cc1ccc2nc3c(cc(C#N)c(=O)n3Cc3ccccc3)c(=O)n2c1,-0.551%
16,CNC(=O)C1CC(=O)N(c2ccc(C)cc2)C1 (centres unmarked),-4.01%
17,CC(=O)N(C)c1ccc(NC(=O)c2ccccc2C(=O)O)cc1,-7.32%
18,c1ccc(-c2ccc(Oc3cc(-n4cccn4)nc(-c4ccccc4)n3)cc2)cc1,3.48%
19,CN(C)c1ccc(C2C3=C(O)CC(C)(C)CC3=Nc3ccccc3N2C(=O)C2CC2)cc1 (centres unmarked),0.76%
20,O=S(=O)(c1ccc(Cl)s1)N1CCCC(c2ccccc2)C1 (centres unmarked),-3.49%
21,CCCCNC(=O)c1ccc(OCC)cc1,4%
22,Cc1nnc(NC(=O)C(Cc2ccccc2)N2C(=O)C3C4C=CC(C4)C3C2=O)s1 (centres unmarked),-4.07%
23,CC(C)(C)c1ccc(OCCNC(=O)C2CCCN2S(=O)(=O)c2ccc(Cl)c(Cl)c2)cc1 (centres unmarked),-0.703%
24,COc1ccc(C2OCC3(CO2)SC(=O)NC3=O)cc1OC (centres unmarked),-4.43%
25,COc1ccc(C2=N/C(=C\c3cccc(Br)c3)C(=O)O2)cc1,-0.597%
26,CCCCCCc1cc2cc(-c3csc(N)n3)c(=O)oc2cc1O,1.12%

row,SMILES,% Inhibition @ 10 uM
1,Cc1c(C(=O)Nc2ccccc2F)cnn1-c1ccccc1,-2.74%
2,C=CCc1cccc2cc(C(=O)NCCc3ccc(OCC)c(OCC)c3)c(=O)oc12,1.98%
3,CCCn1c2ccccc2c2cnn(CC(=O)Nc3ccc(Cl)cn3)c(=O)c21,8.44%
4,Cc1ccc(NC(=O)C2=Cc3sc4c(c3CS2)CCC(C)C4)nc1 (centres unmarked),0.942%
5,CCOc1cc(C2C(C#N)=C(N)Oc3c2c(-c2ccccc2)nn3C)cc(Br)c1O (centres unmarked),1.57%
6,COc1ccccc1N(CC(=O)N1CCCC1)S(=O)(=O)c1ccccc1,-11.7%
7,Cc1ccc(CSCC2COC(c3cccs3)=N2)cc1 (centres unmarked),-7.73%
8,Cc1c(C(=O)N2CCN(C(=O)c3ccccc3)CC2)c(-c2ccccc2)nn1-c1ccccc1,-2.87% and -0.884%
9,CCc1ccc(-c2nc(CS(=O)CC(=O)NCCCN3CCC(C)CC3)c(C)o2)cc1 (centres unmarked),0.718%
10,CCN(CC)CCN(CC)CCC(C)c1ccccc1 (centres unmarked),2.1%
11,COc1ccc(/C=c2\sc3nc(-c4cccc(C)c4)nn3c2=O)c(OC)c1,5.44%
12,CNc1nc(Nc2ccccc2C(=O)c2ccccc2)nc(OC(C(F)(F)F)C(F)(F)F)n1,-4.01%
13,COc1ccc(CNc2nc(N)n(-c3ccccc3)n2)cc1,0.778%
14,CN(C)CCCN(CCCN(C)C)Cc1c(F)cccc1Cl,1.62%
15,Cc1ccc(-n2ncc3c(NCC4CCCO4)ncnc32)cc1 (centres unmarked),1.26%
16,Cc1nc2ccc(S(=O)(=O)NC(C(=O)N3CC(C)CC(C)C3)C(C)C)cc2s1 (centres unmarked),3.2%
17,Cc1ccc2nc3c(O)n(CC(=O)N4CCN(c5ncccn5)CC4)ncc-3c2c1,3.1%
18,Brc1ccc(C2CC(c3ccco3)n3ncnc3N2)cc1 (centres unmarked),0.83%
19,Cc1cccc(-n2c(C)nc3cc(C(=O)NC4CCCC4)ccc32)c1,-3.78%
20,Cc1ccc(-c2c(CN3CCC4(CC3)OCCO4)csc2C)cc1,-7.62%
21,CC(C(=O)N1CCN(C)CC1)N(c1ccccc1)S(C)(=O)=O (centres unmarked),-4.31%
22,COC(=O)c1cc(Cl)nc2ccccc12,3.04%
23,Cc1cc(C)c(S(=O)(=O)NCCOc2ccccc2)c(C)c1-n1cnnn1,0.9%
24,O=C(NCCO)C1c2ccccc2Sc2ccccc21,-2.81%
25,c1coc([C@H]2Nc3ccccc3[C@H]3OCC[C@@H]23)c1,2.84%
26,CCN(CC)C(=O)C1CCN(S(=O)(=O)c2cccc3c2C(=O)c2ccccc2C3=O)CC1,-0.403%

row,SMILES,% Inhibition @ 10 uM
1,O=S(=O)(c1ccc(N2CCN(CCO)CC2)nc1)N1CCCCC1,-1.51%
2,CCN(CC)CCCNCc1cccc(C)c1,-3.12%
3,CN1C(=O)/C(=C/c2cc(Br)ccc2O)S/C1=N/c1cccc(C(=O)O)c1,2.44%
4,CNC(=O)CCCCCNS(=O)(=O)c1ccc(C)cc1,3.62%
5,CCOc1ccccc1C(=O)Nc1cccnc1,1.86%
6,Cc1ccccc1/C=C1/C(=N)N2N=C(C(C)C)SC2=NC1=O,-6.69%
7,CCOc1ccc(Cn2c(=O)oc3ccc(C)cc32)cc1OC,-4.41%
8,CC1CCCCC1NC(=O)C1CCN(c2nnc(N3CCCC3=O)s2)CC1 (centres unmarked),0.623%
9,CCOc1cc(C2C=C(c3ccc(F)cc3)Nc3nnnn32)ccc1OC(F)F (centres unmarked),-5.19%
10,CCCCCOc1ccc(C2c3c(oc4ccccc4c3=O)C(=O)N2c2nnc(C)s2)cc1OC (centres unmarked),11%
11,CCC1=NN2C(=N)/C(=C\c3cccn3-c3cc(C)ccc3OC)C(=O)N=C2S1,-3.35%
12,CCN(CC)c1ccc(NC(=O)NC2CCCCC2)cc1,-1.61%
13,CCc1ccc(Oc2nc3ccccn3c(=O)c2/C=C(\C#N)C(=O)NCc2ccco2)cc1,0.0628%
14,CCOc1ccc(N2C(=O)CC(N3CCN(c4ccccc4F)CC3)C2=O)cc1 (centres unmarked),1.92%
15,CN(Cc1ccccc1)c1ncnc2c(-c3ccc(F)cc3)nsc12,-2.71%
16,COc1ccc(NC(=O)CSc2nc3ccccc3s2)cc1OC,-1.37%
17,COCCCNC(=O)c1cc2oc3ccccc3c2n1C,1.22%
18,CC(C)CC(NC(=O)c1ccncc1)C(=O)NCC#N (centres unmarked),0.556%
19,Cc1ccc(F)c(NC(=O)NC2CCCCC2)c1,6.08%
20,O=C(Nc1c(Cl)cccc1Cl)c1ccc2c(c1)OCO2,0.727%
21,COc1ccc(NC(=O)CCC(=O)c2ccc(F)cc2)cc1,-0.872%
22,CCc1nc2c(=O)n(C)c(=O)n(C)c2[nH]1,-2.66%
23,COc1ccc(-c2[nH]nc(C)c2-c2cnn(-c3ccccc3)c2)c(O)c1,4.35%
24,COc1ccc(C(=O)Nc2ccc(S(=O)(=O)Nc3ncccn3)cc2)c(OC)c1,-3.09%
25,Cn1ncc(C#N)c1N,0.708%
26,Cc1ccc(CNC(=O)C(NS(=O)(=O)c2ccc(Br)s2)c2ccccc2)cc1 (centres unmarked),-0.668%

row,SMILES,% Inhibition @ 10 uM
1,COc1ccc(/C(O)=C/C=N/c2ccc(Br)cc2Cl)cc1OC,-6.51%
2,COc1cccc(OC)c1C(=O)NCC1CCCO1 (centres unmarked),0.634%
3,CCOc1ccc(/C=C(\C#N)c2nc(-c3ccc(OCC)cc3)cs2)cc1,2.13%
4,CC1=C(C(=O)NCCN2CCN(C)CC2)C2(CCC(C)CC2)OC1=O (centres unmarked),1.55%
5,COc1cc(/C=N\n2cnnc2)ccc1OCc1ccccc1,7.62%
6,Cc1ccc(OCC(O)CN2CCN(c3ccccc3)CC2)cc1 (centres unmarked),3.72%
7,COCCNC(=O)CN1C(=O)CSc2nc(C)cc(C)c21,5.73%
8,Cc1[nH]c2ccccc2c1C(c1ccc(N(C)C)cc1)c1c(C)[nH]c2ccccc12,0.565%
9,CC1SC(NC(=O)COc2ccccc2)=NC1=O (centres unmarked),0.222%
10,CCc1ccccc1S(=O)(=O)Cc1ccc(C(=O)N2CCN(c3ccccn3)CC2)o1,0.458%
11,CCOc1cc2c(cc1OCC)C1C(C(=O)NC3CCCCC3)c3ccccc3C(=O)N1CC2 (centres unmarked),-6.58%
12,CC/N=C(/Nc1cc(-c2ccccc2)[nH]n1)SC,-0.551%
13,N=C(NOC(=O)/C=C/c1ccccc1)c1ccncc1,-1.55%
14,N=c1n(CCOc2ccccc2)c2ccccc2n1CCN1CCOCC1,-6.25%
15,Cc1ccc2nc(NC(=O)Cc3csc(C)n3)sc2c1,-2.71%
16,CC(C)(C)C1CCC(OC(=O)CCC(=O)Nc2ccccc2)CC1 (centres unmarked),3.16%
17,COc1cc(Cn2c(=O)oc3ccc(C)cc32)ccc1OC(C)C,4.09%
18,CCCNC(=O)CCn1nc(C)c2c(C)n(-c3ccccc3)nc2c1=O,-6.75%
19,CC1=NN2CC(c3ccccc3)=NN=C2NC1=O,-3.23%
20,O=C(NCc1noc2ccccc12)N1CCN(C2CCCCC2)CC1,-4.95%
21,CN(Cc1ccco1)C(=O)CCNS(=O)(=O)c1ccc2nc(O)ccc2c1,-8.7%
22,Cn1ncc(Cl)c1C(=O)NCc1cc2cc(Cl)ccc2[nH]1,-4.28%
23,CCCc1nn(-c2ccc(F)cc2)c(O)c1/C=N/CCN1CCOCC1,-0.99%
